From the supplement of paper PMC9588766
Where a name gives a salt, the structure may show the parent alone. In all, about 1,900 compounds were measured (“cell viability of compound + 1 nM pemigatinib relative to pemigatinib-only (DMSO) wells”: median about 0.95, lowest 2% from about 0.22 on). The list shows a part of the results.

Test system: PDC-DUC18828
Assay: cell viability of compound + 1 nM pemigatinib relative to pemigatinib-only (DMSO) wells (fraction); PDC-DUC18828 is a patient-derived cholangiocarcinoma cell line; higher = less growth inhibition
Settings: first compound 1 µM; pemigatinib concentration 1 nM; 72 h
Experimental: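 Selleck Bioactive library screen in the patient-derived FGFR2 fusion-positive ICC cell line PDC-DUC18828 (500 cells/well). Each compound was tested at 1 uM with 1 nM pemigatinib, in triplicate, for 72 h. Viability was read by CellTiter-Glo and normalised to plate DMSO controls. Value is the paper's averaged normalised viability.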

| SMILES | cell viability |
| --- | --- |
| CN(CCOc1ccc(NS(C)(=O)=O)cc1)CCc1ccc(NS(C)(=O)=O)cc1 [Dofetilide] + CCN1C(=O)N(c2c(F)c(OC)cc(OC)c2F)Cc2cnc3[nH]c(CN4CCOCC4)cc3c21 [pemigatinib] | 0.943 |
| CC(=O)N1CCN(c2ccc(OCC3COC(Cn4ccnc4)(c4ccc(Cl)cc4Cl)O3)cc2)CC1 (configuration not stated) [Ketoconazole] + CCN1C(=O)N(c2c(F)c(OC)cc(OC)c2F)Cc2cnc3[nH]c(CN4CCOCC4)cc3c21 [pemigatinib] | 0.911 |
| Cc1[nH]c(/C=C2\C(=O)Nc3ccccc32)c(C)c1CCC(=O)O [TSU-68 (SU6668, Orantinib)] + CCN1C(=O)N(c2c(F)c(OC)cc(OC)c2F)Cc2cnc3[nH]c(CN4CCOCC4)cc3c21 [pemigatinib] | 0.962 |
| COc1cc(C=O)ccc1O [Vanillin] + CCN1C(=O)N(c2c(F)c(OC)cc(OC)c2F)Cc2cnc3[nH]c(CN4CCOCC4)cc3c21 [pemigatinib] | 0.892 |
| C1=N/C2=N/c3ccc(OCCN4CCCC4)c(c3)COC/C=C/COCc3cccc(c3)C(=C1)N2 [Pacritinib (SB1518)] + CCN1C(=O)N(c2c(F)c(OC)cc(OC)c2F)Cc2cnc3[nH]c(CN4CCOCC4)cc3c21 [pemigatinib] | 0.8 |
| CNc1ncc2cc(-c3cc(NC(=O)NCCC(C)(C)C)c(F)cc3C)c(C)nc2n1 + CCN1C(=O)N(c2c(F)c(OC)cc(OC)c2F)Cc2cnc3[nH]c(CN4CCOCC4)cc3c21 [pemigatinib] | 0.644 |
| C#C[C@]1(O)CC[C@H]2[C@@H]3CCc4cc(OC)ccc4[C@H]3CC[C@@]21C [Mestranol] + CCN1C(=O)N(c2c(F)c(OC)cc(OC)c2F)Cc2cnc3[nH]c(CN4CCOCC4)cc3c21 [pemigatinib] | 1.07 |
| CC(C)NCC(O)c1ccc(NS(C)(=O)=O)cc1 (configuration not stated) [Sotalol] + CCN1C(=O)N(c2c(F)c(OC)cc(OC)c2F)Cc2cnc3[nH]c(CN4CCOCC4)cc3c21 [pemigatinib] | 0.932 |
| CN(C)C(=O)c1ccc(S(=O)(=O)c2ccc(NC(=O)[C@@](C)(O)C(F)(F)F)c(Cl)c2)cc1 + CCN1C(=O)N(c2c(F)c(OC)cc(OC)c2F)Cc2cnc3[nH]c(CN4CCOCC4)cc3c21 [pemigatinib] | 0.959 |
| CC(C)(C)NS(=O)(=O)c1cncc(-c2cc(F)c3nc(N)nn3c2)c1 + CCN1C(=O)N(c2c(F)c(OC)cc(OC)c2F)Cc2cnc3[nH]c(CN4CCOCC4)cc3c21 [pemigatinib] | 0.959 |
| O=C(O)P(=O)(O)O [Foscarnet Sodium] + CCN1C(=O)N(c2c(F)c(OC)cc(OC)c2F)Cc2cnc3[nH]c(CN4CCOCC4)cc3c21 [pemigatinib] | 0.907 |
| Cc1nc(C)c(Cl)c(O)c1Cl [Clopidol] + CCN1C(=O)N(c2c(F)c(OC)cc(OC)c2F)Cc2cnc3[nH]c(CN4CCOCC4)cc3c21 [pemigatinib] | 1.07 |
| CCN(CC)CCCC(C)Nc1c2ccc(Cl)cc2nc2ccc(OC)cc12 (configuration not stated) [Quinacrine 2HCl] + CCN1C(=O)N(c2c(F)c(OC)cc(OC)c2F)Cc2cnc3[nH]c(CN4CCOCC4)cc3c21 [pemigatinib] | 0.94 |
| N#Cc1ccc2[nH]c(O)c(-c3ccc(CN4CCOCC4)cn3)c2c1 + CCN1C(=O)N(c2c(F)c(OC)cc(OC)c2F)Cc2cnc3[nH]c(CN4CCOCC4)cc3c21 [pemigatinib] | 1.1 |
| Oc1ccc(Nc2nc(-c3ccc(Cl)cc3)cs2)cc1 + CCN1C(=O)N(c2c(F)c(OC)cc(OC)c2F)Cc2cnc3[nH]c(CN4CCOCC4)cc3c21 [pemigatinib] | 0.862 |
| COc1cc2ncnc(Nc3ccc(Cl)cc3F)c2cc1OC + CCN1C(=O)N(c2c(F)c(OC)cc(OC)c2F)Cc2cnc3[nH]c(CN4CCOCC4)cc3c21 [pemigatinib] | 0.835 |
| N[C@@H]1CCCN(c2c(/C=C3\SC(=O)NC3=O)cccc2-c2ccccc2)C1 + CCN1C(=O)N(c2c(F)c(OC)cc(OC)c2F)Cc2cnc3[nH]c(CN4CCOCC4)cc3c21 [pemigatinib] | 0.841 |
| CO[C@H]1C[C@@H]2CC[C@@H](C)[C@@](O)(O2)C(=O)C(=O)N2CCCC[C@H]2C(=O)O[C@H]([C@H](C)C[C@@H]2CC[C@@H](O)[C@H](OC)C2)CC(=O)[C@H](C)/C=C(\C)[C@@H](O)[C@@H](OC)C(=O)[C@H](C)C[C@H](C)/C=C/C=C/C=C/1C [Rapamycin (Sirolimus)] + CCN1C(=O)N(c2c(F)c(OC)cc(OC)c2F)Cc2cnc3[nH]c(CN4CCOCC4)cc3c21 [pemigatinib] | 0.555 |
| CNC[C@H](O)c1cccc(O)c1 [Phenylephrine HCl] + CCN1C(=O)N(c2c(F)c(OC)cc(OC)c2F)Cc2cnc3[nH]c(CN4CCOCC4)cc3c21 [pemigatinib] | 0.885 |

| SMILES | cell viability |
| --- | --- |
| N[C@@H]1CN(c2c(F)cc3c(=O)c(C(=O)O)cn([C@@H]4C[C@@H]4F)c3c2Cl)CC12CC2 [Sitafloxacin Hydrate] + CCN1C(=O)N(c2c(F)c(OC)cc(OC)c2F)Cc2cnc3[nH]c(CN4CCOCC4)cc3c21 [pemigatinib] | 1.08 |
| Cc1nc(Nc2n[nH]c3c2CN(C(=O)N[C@H](CN(C)C)c2ccccc2)C3(C)C)c2sccc2n1 + CCN1C(=O)N(c2c(F)c(OC)cc(OC)c2F)Cc2cnc3[nH]c(CN4CCOCC4)cc3c21 [pemigatinib] | 0.498 |
| CCOc1ccn(-c2ccc(F)cc2)c(=O)c1C(=O)Nc1ccc(Oc2ccnc(N)c2Cl)c(F)c1 + CCN1C(=O)N(c2c(F)c(OC)cc(OC)c2F)Cc2cnc3[nH]c(CN4CCOCC4)cc3c21 [pemigatinib] | 0.979 |
| CCN(CC)CCN(Cc1ccc(-c2ccc(C(F)(F)F)cc2)cc1)C(=O)Cn1c(SCc2ccc(F)cc2)nc(=O)c2c1CCC2 + CCN1C(=O)N(c2c(F)c(OC)cc(OC)c2F)Cc2cnc3[nH]c(CN4CCOCC4)cc3c21 [pemigatinib] | 0.9 |
| N#C[C@@H]1CCCN1C(=O)CNC12CC3CC(CC(O)(C3)C1)C2 [Vildagliptin (LAF-237)] + CCN1C(=O)N(c2c(F)c(OC)cc(OC)c2F)Cc2cnc3[nH]c(CN4CCOCC4)cc3c21 [pemigatinib] | 0.884 |
| COC(=O)c1ccc2c(c1)NC(=O)/C2=C(\Nc1ccc(N(C)C(=O)CN2CCN(C)CC2)cc1)c1ccccc1 [Nintedanib (BIBF 1120)] + CCN1C(=O)N(c2c(F)c(OC)cc(OC)c2F)Cc2cnc3[nH]c(CN4CCOCC4)cc3c21 [pemigatinib] | 0.955 |
| O=C(O[C@@H]1Cc2c(O)cc(O)cc2O[C@@H]1c1cc(O)c(O)c(O)c1)c1cc(O)c(O)c(O)c1 [(-)-Epigallocatechin Gallate] + CCN1C(=O)N(c2c(F)c(OC)cc(OC)c2F)Cc2cnc3[nH]c(CN4CCOCC4)cc3c21 [pemigatinib] | 1.01 |
| CC(C)C[C@H](NC(=O)CNC(=O)c1cc(Cl)ccc1Cl)B(O)O + CCN1C(=O)N(c2c(F)c(OC)cc(OC)c2F)Cc2cnc3[nH]c(CN4CCOCC4)cc3c21 [pemigatinib] | 0.0167 |
| C=CCc1ccc(O)c(-c2ccc(O)c(CC=C)c2)c1 [Honokiol] + CCN1C(=O)N(c2c(F)c(OC)cc(OC)c2F)Cc2cnc3[nH]c(CN4CCOCC4)cc3c21 [pemigatinib] | 0.942 |
| CNC(=C[N+](=O)[O-])NCCSCc1ccc(CN(C)C)o1 [Ranitidine] + CCN1C(=O)N(c2c(F)c(OC)cc(OC)c2F)Cc2cnc3[nH]c(CN4CCOCC4)cc3c21 [pemigatinib] | 0.973 |
| COc1cc2c(cc1OC)-c1cc3ccc(OC)c(OC)c3c[n+]1CC2 [Palmatine chloride] + CCN1C(=O)N(c2c(F)c(OC)cc(OC)c2F)Cc2cnc3[nH]c(CN4CCOCC4)cc3c21 [pemigatinib] | 0.91 |
| COC(=O)[C@H]1[C@H]2C[C@@H]3c4[nH]c5cc(OC)ccc5c4CCN3C[C@H]2C[C@@H](OC(=O)c2cc(OC)c(OC)c(OC)c2)[C@@H]1OC [Reserpine] + CCN1C(=O)N(c2c(F)c(OC)cc(OC)c2F)Cc2cnc3[nH]c(CN4CCOCC4)cc3c21 [pemigatinib] | 1.04 |
| CSc1cccc(Nc2ncc3cc(-c4c(Cl)cccc4Cl)c(=O)n(C)c3n2)c1 + CCN1C(=O)N(c2c(F)c(OC)cc(OC)c2F)Cc2cnc3[nH]c(CN4CCOCC4)cc3c21 [pemigatinib] | 0.913 |
| O=C(O)c1ccc(Nc2ncc3c(n2)-c2ccc(Cl)cc2C(c2c(F)cccc2F)=NC3)cc1 + CCN1C(=O)N(c2c(F)c(OC)cc(OC)c2F)Cc2cnc3[nH]c(CN4CCOCC4)cc3c21 [pemigatinib] | 0.44 |
| Cc1cc(N2CCOCC2)ccc1Nc1nc(NC2CCCCC2)c2[nH]cnc2n1 + CCN1C(=O)N(c2c(F)c(OC)cc(OC)c2F)Cc2cnc3[nH]c(CN4CCOCC4)cc3c21 [pemigatinib] | 0.8 |
| C[C@H](NC(=O)Cc1cc(F)cc(F)c1)C(=O)N[C@@H]1C(=O)N(C)c2ccccc2-c2ccccc21 + CCN1C(=O)N(c2c(F)c(OC)cc(OC)c2F)Cc2cnc3[nH]c(CN4CCOCC4)cc3c21 [pemigatinib] | 0.972 |
| O=c1c(-c2ccc(O)cc2)coc2cc(O)cc(O)c12 [Genistein] + CCN1C(=O)N(c2c(F)c(OC)cc(OC)c2F)Cc2cnc3[nH]c(CN4CCOCC4)cc3c21 [pemigatinib] | 0.937 |
| OCc1ccc(-c2ccc(-c3ccc(CO)s3)o2)s1 + CCN1C(=O)N(c2c(F)c(OC)cc(OC)c2F)Cc2cnc3[nH]c(CN4CCOCC4)cc3c21 [pemigatinib] | 0.883 |
